Earlier results, collected in patent US20230201216A1, “AZELASTINE AS ANTIVIRAL TREATMENT” (priority 2020, published 2023).

Tested on: SARS-CoV-2
Conditions: Vero E6 cells (not expressing TMPRSS2); ref. Hoffmann et al.; cited from earlier work

## CCN(CCO)CCCC(C)Nc1ccnc2cc(Cl)ccc12 (stereo not shown) [Hydroxychloroquine sulfate]
  anti-SARS-CoV-2 effect on Vero E6 cells: strong anti-SARS-CoV-2 effect

Structures can show the parent of a compound that is named as a salt.
